Data from the supplement of paper PMC4604168 (melanoma cell lines).
The list shows a part of the results. Most values come without repeats; read them as rough.

Columns and labels:
Test in all cases: cell count relative to DMSO control; melanoma cells; higher = more viable cells
Conditions in all cases: library dose: low library concentration; 72 h
MZ2-MEL = system: MZ2-MEL
MeWo = system: MeWo
RPMI7951 = system: RPMI7951
RVH-421 = system: RVH-421
SkMel28 = system: SkMel28
SkMel2 = system: SkMel2
SkMel30 = system: SkMel30
SkMel5 = system: SkMel5
UACC257 = system: UACC257
UACC62 = system: UACC62
WM115 = system: WM115
WM1716 = system: WM1716
WM1745 = system: WM1745
WM3526 = system: WM3526
WM3619 = system: WM3619
WM451Lu = system: WM451Lu
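Further: cell number obtained by counting DAPI-stained nuclei in high-throughput microscope images with image analysis software, screen run in 1,536-well plates.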

SMILES	cell count (MZ2-MEL)	cell count (MeWo)	cell count (RPMI7951)	cell count (RVH-421)	cell count (SkMel28)	cell count (SkMel2)	cell count (SkMel30)	cell count (SkMel5)	cell count (UACC257)	cell count (UACC62)	cell count (WM115)	cell count (WM1716)	cell count (WM1745)	cell count (WM3526)	cell count (WM3619)	cell count (WM451Lu)
NC(=O)c1ccc(N(C(N)=O)c2c(F)cccc2F)nc1-c1ccc(F)cc1F + Oc1cc(-c2nc(-c3ccccc3)[nH]c2-c2ccncc2)ccc1Cl [L779450] (first compound 0.4 µM, partner dose 0.2 µM)	82.5%	99.6%	107%	126%	67.7%	92.1%	103%	98.7%	66.4%	67.9%	86.4%	101%	96%	87.1%	91.5%	103%
CCCCCCCCc1ccc(CCC(N)(CO)CO)cc1 [fingolimod] + Cc1cc([N+](=O)[O-])ccc1NS(=O)(=O)c1cc(Cl)ccc1Cl [FH535] (first compound 2 µM, partner dose 1 µM)	82.9%	103%	94%	100%	108%	92.6%	93.7%	78.2%	86.7%	108%	91.5%	71.7%	91.2%	90%	133%	124%
NC(=O)c1ccc(N(C(N)=O)c2c(F)cccc2F)nc1-c1ccc(F)cc1F + CN1CCN(c2ccc3nc(-c4c(N)c5c(F)cccc5[nH]c4=O)[nH]c3c2)CC1 [Dovitinib] (first compound 0.4 µM, partner dose 0.1 µM)	106%	85%	85.8%	103%	82.8%	104%	94.4%			104%	113%	119%	99.8%	74%	110%	106%
CCCCCCCCc1ccc(CCC(N)(CO)CO)cc1 [fingolimod] + O=C(O)[C@@H]1[O][Sb](=[O])([O][Sb]2(=[O])[O][C@H]([C@H](O)CO)[C@H](O)[C@H](C(=O)O)[O]2)[O][C@H]([C@H](O)CO)[C@@H]1O [stibogluconate] (first compound 2 µM, partner dose 2 µM)	97.7%	90.8%	91.9%	110%	80.8%	81.5%	108%			104%	109%	119%	97.8%	82.8%	124%	114%
CCCCCCCCc1ccc(CCC(N)(CO)CO)cc1 [fingolimod] + CC(C)C[C@H](NC(=O)[C@H](Cc1ccccc1)NC(=O)c1cnccn1)B(O)O [Bortezomib] (first compound 2 µM, partner dose 0.001 µM)	89.6%	80.9%	75.8%	93.7%	92.1%	81.3%	91%			88.8%	98.3%	59.4%	68.1%	84%	25.6%	102%
CCCCCCCCc1ccc(CCC(N)(CO)CO)cc1 [fingolimod] + CN(C)S(=O)(=O)c1ccc2c(c1)/C(=C/c1cc3c([nH]1)CCCC3)C(=O)N2 [SU6656] (first compound 2 µM, partner dose 0.4 µM)	100%	78.6%	82.2%	94.2%	89.7%	87.7%	101%	97.6%	103%	86.6%	71.8%	76.6%	51.9%	74%	34%	87.9%
CCCCCCCCc1ccc(CCC(N)(CO)CO)cc1 [fingolimod] + C=CCn1c(=O)c2cnc(Nc3ccc(N4CCN(C)CC4)cc3)nc2n1-c1cccc(C(C)(C)O)n1 [MK1775] (first compound 2 µM, partner dose 0.02 µM)	98.2%	90.8%	73.5%	82.4%	91.5%	80%	95.3%	85.6%	82.6%	69.7%	95.4%	83.2%	69.8%	81.6%	92.7%	115%
CCCCCCCCc1ccc(CCC(N)(CO)CO)cc1 [fingolimod] + Oc1nc(-c2ccc(C(F)(F)F)cc2)nc2c1CSCC2 [XAV939] (first compound 2 µM, partner dose 2 µM)	88.1%	108%	61.4%	17.9%	89.4%	90.2%	91.1%	86.2%	100%	72.6%	93.8%	54.6%	66.2%	67.6%	87.7%	115%
CCCCCCCCc1ccc(CCC(N)(CO)CO)cc1 [fingolimod] + CN1CCN(c2ccc3nc(-c4c(N)c5c(F)cccc5[nH]c4=O)[nH]c3c2)CC1 [Dovitinib] (first compound 2 µM, partner dose 0.1 µM)	91.7%	97.7%	92.3%	83.7%	89.7%	104%	77.5%			65.4%	108%	99.1%	79.8%	97.6%	92.2%	99.6%
NC(=O)c1ccc(N(C(N)=O)c2c(F)cccc2F)nc1-c1ccc(F)cc1F + NC1(c2ccc(-c3nc4ccn5c(=O)[nH]nc5c4cc3-c3ccccc3)cc2)CCC1 [MK2206] (first compound 0.4 µM, partner dose 0.4 µM)	102%	68.3%	83.2%	58.8%	59.5%	93.1%	74.6%			72.1%	73.5%	87.6%	91.5%	62.8%	87%	83.4%
CCCCCCCCc1ccc(CCC(N)(CO)CO)cc1 [fingolimod] + C[C@@H](Oc1cc(-c2cnn(C3CCNCC3)c2)cnc1N)c1c(Cl)ccc(F)c1Cl [Crizotinib] (first compound 2 µM, partner dose 0.2 µM)	81.3%	97.5%	90.2%	77.1%	108%	99.4%	107%			97.9%	111%	109%	76.1%	97.4%	90.2%	114%
CCCCCCCCc1ccc(CCC(N)(CO)CO)cc1 [fingolimod] + C=C(c1ccc(C(=O)O)cc1)c1cc2c(cc1C)C(C)(C)CCC2(C)C [Bexarotene] (first compound 2 µM, partner dose 2 µM)	88.9%	80.7%	68.6%	120%	54.4%	82.2%	105%			77.6%	91.6%	58.1%	94.1%	75%	86%	95.9%
NC(=O)c1ccc(N(C(N)=O)c2c(F)cccc2F)nc1-c1ccc(F)cc1F + COc1cc(Nc2ncc(F)c(Nc3ccc4c(n3)NC(=O)C(C)(C)O4)n2)cc(OC)c1OC [Tamatinib] (first compound 0.4 µM, partner dose 0.4 µM)	98.3%	90.4%	78.4%	115%	66.2%	104%	107%	84.9%	64%	76.1%	88.6%	81.7%	73.8%	107%	99.8%	85.3%
CCCCCCCCc1ccc(CCC(N)(CO)CO)cc1 [fingolimod] + Nc1ccn([C@@H]2O[C@H](CO)[C@@H](O)C2(F)F)c(=O)n1 [gemcitabine] (first compound 2 µM, partner dose 0.0004 µM)	88.8%	96.5%	83.9%	89.3%	81.4%	91%	90.1%			89.8%	90.1%	83.5%	82%	92.3%	81.6%	123%
NC(=O)c1ccc(N(C(N)=O)c2c(F)cccc2F)nc1-c1ccc(F)cc1F + Cn1c(=O)n(-c2ccc(C(C)(C)C#N)cc2)c2c3cc(-c4cnc5ccccc5c4)ccc3ncc21 [NVP-BEZ235] (first compound 0.4 µM, partner dose 0.004 µM)	99.1%	99.6%	97.8%	88.3%	83.2%	95.5%	68.4%			90%	103%	89.4%	102%	89.7%	88.6%	113%
CCCCCCCCc1ccc(CCC(N)(CO)CO)cc1 [fingolimod] + O=C(O)c1ccc2c(c1)nc(Nc1cccc(Cl)c1)c1ccncc12 [CX4945] (first compound 2 µM, partner dose 0.4 µM)	94.7%	94.6%	74.6%	93.7%	120%	83.7%	91.2%			91.2%	91%	94.3%	82.1%	94.1%	78.3%	86.3%
CCCCCCCCc1ccc(CCC(N)(CO)CO)cc1 [fingolimod] + Cc1nc(Nc2ncc(C(=O)Nc3c(C)cccc3Cl)s2)cc(N2CCN(CCO)CC2)n1 [dasatanib] (first compound 2 µM, partner dose 0.004 µM)	85.7%	82.7%	61.1%	84.8%	98.6%	94.3%	98.1%			76.2%	74.9%	68%	75.1%	74.6%	85.4%	104%
CN(NC(=O)CC(=O)NN(C)C(=S)c1ccccc1)C(=S)c1ccccc1 + COc1cc2c(Oc3ccc4[nH]c(C)cc4c3F)ncnc2cc1OCCCN1CCCC1 [cediranib] (first compound 0.006 µM, partner dose 0.4 µM)	110%	98.7%	123%	87.4%	104%	104%	88.9%	93.4%	84%	88%	89.1%	96%	45.1%	100%	51.6%	86.5%
NC(=O)c1ccc(N(C(N)=O)c2c(F)cccc2F)nc1-c1ccc(F)cc1F + OCc1c[nH]c2ccccc12 [Indole-3-carbinol] (first compound 0.4 µM, partner dose 0.8 µM)	103%	84.3%	92.7%	76.7%	69.3%	93.9%	96.9%			81.2%	85.1%	86.6%	92.6%	101%	94.9%	96.3%
